# The full ranking holds about 2,900 compounds; the median of “IRF Lucia reporter activity, fold change vs agonist alone” is about 0.9, and the highest 2% start at about 2.8. This is one part of the list.
# Assays:
# [1] = tested on: RAW-Dual; assay: IRF Lucia reporter activity, fold change vs agonist alone; cytotoxicity flag (confluency mask): cytotoxic (confluency <70% of control); higher = enhanced IRF activity
# In short: (§1)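 Reporter activity is given as fold change relative to agonist-alone wells. To measure it, 50 nL of library stock was pin-tooled onto RAW-Dual macrophages (50,000 cells/well, DMEM, 384-well plates), a PRR agonist followed 1 h later, and cells stayed at 37 °C, 5% CO2. Twenty hours on, supernatant was assayed for IRF (QuantiLuc luminescence) and NF-κB (QuantiBlue, 620 nm absorbance), and wells under 70% of agonist-control IncuCyte confluency in both mask sets were marked cytotoxic.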
# [2] = tested on: RAW-Dual; assay: IRF Lucia reporter activity, fold change vs agonist alone; cytotoxicity flag (confluency mask): not cytotoxic; higher = enhanced IRF activity
# In short: as §1
# [3] = tested on: RAW-Dual; assay: IRF Lucia reporter activity, fold change vs agonist alone; higher = enhanced IRF activity; conditions: library stock concentration (final ~1000-fold dilution): 10 mM, agonist: MPLA (TLR4) […]
# In short: as §1
# [4] = agonist: 3'3'-cGAMP (STING) 10 ug/mL
# [5] = cytotoxicity flag (confluency mask): cytotoxic (confluency <70% of control)
# [6] = cytotoxicity flag (confluency mask): not cytotoxic
smiles,measurement,setting,value
O=C(CCCCCN1C(=O)c2cccc3cccc(c23)C1=O)NO (library stock concentration (final ~1000-fold dilution): 10 mM),IRF Lucia reporter activity,[1]; [4],0.0259
same,IRF Lucia reporter activity,[1]; agonist: LPS (TLR4) 0.1 ug/mL,0.637
N#Cc1ccnc(N2C(=O)CCC2C(=O)N(c2cncc(F)c2)C(C(=O)NC2CC(F)(F)C2)c2ccccc2Cl)c1 (configuration not stated) (library stock concentration (final ~1000-fold dilution): 10 mM),IRF Lucia reporter activity,[2]; [4],1.42
same,IRF Lucia reporter activity,[2]; agonist: LPS (TLR4) 0.1 ug/mL,1.11
NC(=O)c1cc(F)cc2c1C(=O)N(C1CCN(C3CCC(F)(F)CC3)CC1)C2 (library stock concentration (final ~1000-fold dilution): 10 mM),IRF Lucia reporter activity,[2]; [4],0.94
same,IRF Lucia reporter activity,[2]; agonist: LPS (TLR4) 0.1 ug/mL,0.923
O=C(/C=C/c1ccc(O)c(O)c1)O[C@@H]1CC(O)(C(=O)O)C[C@@H](OC(=O)/C=C/c2ccc(O)c(O)c2)C1O (some centres not stated) (library stock concentration (final ~1000-fold dilution): 10 mM),IRF Lucia reporter activity,[2]; [4],0.873
same,IRF Lucia reporter activity,[2]; agonist: LPS (TLR4) 0.1 ug/mL,0.963
COc1ccc2c(c1)c(C1=C(c3c[nH]c4ccccc34)C(=O)NC1=O)cn2CCCN(C)C,IRF Lucia reporter activity,[3]; [5],0.403
COc1ccc2c(c1)c(C1=C(c3c[nH]c4ccccc34)C(=O)NC1=O)cn2CCCN(C)C (library stock concentration (final ~1000-fold dilution): 10 mM),IRF Lucia reporter activity,[1]; [4],0.0845
same,IRF Lucia reporter activity,[1]; agonist: LPS (TLR4) 0.1 ug/mL,0.34
Nc1c2c(nc3ccccc13)CCCC2 (library stock concentration (final ~1000-fold dilution): 10 mM),IRF Lucia reporter activity,[2]; [4],0.531
same,IRF Lucia reporter activity,[2]; agonist: LPS (TLR4) 0.1 ug/mL,0.976
Nc1c2c(nc3ccccc13)CCCC2,IRF Lucia reporter activity,[3]; [6],0.977
CC(C)=CCC[C@](C)(O[C@@H]1O[C@H](CO)[C@@H](O)[C@H](O)[C@H]1O)[C@H]1CC[C@]2(C)[C@@H]1[C@H](O)C[C@@H]1[C@@]3(C)CC[C@H](O)C(C)(C)[C@@H]3[C@@H](O[C@@H]3O[C@H](CO)[C@@H](O)[C@H](O)[C@H]3O)C[C@]12C (library stock concentration (final ~1000-fold dilution): 10 mM),IRF Lucia reporter activity,[2]; [4],1
same,IRF Lucia reporter activity,[2]; agonist: LPS (TLR4) 0.1 ug/mL,1.19
O=C(CCc1ccc(O)cc1)c1c(O)cccc1OC1OC(CO)C(O)C(O)C1O (configuration not stated),IRF Lucia reporter activity,[3]; [6],1.01
O=C(CCc1ccc(O)cc1)c1c(O)cccc1OC1OC(CO)C(O)C(O)C1O (configuration not stated) (library stock concentration (final ~1000-fold dilution): 10 mM),IRF Lucia reporter activity,[2]; [4],0.943
same,IRF Lucia reporter activity,[2]; agonist: LPS (TLR4) 0.1 ug/mL,0.918
O=c1sn(-c2cccc3ccccc23)c(=O)n1Cc1ccccc1,IRF Lucia reporter activity,[3]; [5],0.76
O=c1sn(-c2cccc3ccccc23)c(=O)n1Cc1ccccc1 (library stock concentration (final ~1000-fold dilution): 10 mM),IRF Lucia reporter activity,[1]; [4],0.628
same,IRF Lucia reporter activity,[1]; agonist: LPS (TLR4) 0.1 ug/mL,0.552
